In the antibiotic and cytotoxicity screens of Wong et al. (2023):
The other results are listed elsewhere or left out.

Columns and labels:
HSkMC = human skeletal muscle cells; assay: cytotoxicity call (relative viability < 0.9); conditions: 10 µM
HepG2 = assay: cytotoxicity call (relative viability < 0.9); conditions: 10 µM
S. aureus RN4220 = assay: growth inhibition call (relative growth <= 0.2); conditions: 50 µM

CNC(=O)C[C@H]1CC[C@H]2[C@@H](COC[C@H](O)CN2C(=O)c2ccc3c(c2)OCO3)O1
inactive: cytotoxicity call (HSkMC) | cytotoxicity call (HepG2) | growth inhibition call (S. aureus RN4220)

C[C@@H]1CCCCO[C@H](CN(C)Cc2ccc(C(=O)O)cc2)[C@H](C)CN([C@H](C)CO)C(=O)c2cc(NC(=O)Nc3ccccc3)ccc2O1
inactive: cytotoxicity call (HSkMC) | cytotoxicity call (HepG2) | growth inhibition call (S. aureus RN4220)

C[C@@H]1CN([C@H](C)CO)C(=O)c2cc(NC(=O)Cc3ccccc3)ccc2O[C@H]1CN(C)S(=O)(=O)c1cccs1
inactive: cytotoxicity call (HSkMC) | cytotoxicity call (HepG2) | growth inhibition call (S. aureus RN4220)

C[C@@H]1CCCCO[C@@H](CN(C)Cc2ccncc2)[C@H](C)CN([C@H](C)CO)C(=O)c2cc(NC(=O)NC3CCCCC3)ccc2O1
inactive: cytotoxicity call (HSkMC) | cytotoxicity call (HepG2) | growth inhibition call (S. aureus RN4220)

COc1ccc(CN(C)C[C@H]2Oc3c(NC(=O)Nc4cccc5ccccc45)cccc3C(=O)N([C@@H](C)CO)C[C@H]2C)cc1
inactive: cytotoxicity call (HSkMC) | cytotoxicity call (HepG2) | growth inhibition call (S. aureus RN4220)

C[C@@H]1CCCCO[C@H](CN(C)C(=O)CCCN(C)C)[C@H](C)CN([C@@H](C)CO)C(=O)c2cc(NC(=O)Nc3cccc4ccccc34)ccc2O1
inactive: cytotoxicity call (HSkMC) | cytotoxicity call (HepG2) | growth inhibition call (S. aureus RN4220)

Cc1noc(C)c1S(=O)(=O)N(C)C[C@H]1Oc2ccc(NS(=O)(=O)c3cn(C)cn3)cc2CC(=O)N([C@H](C)CO)C[C@H]1C
inactive: cytotoxicity call (HSkMC) | cytotoxicity call (HepG2) | growth inhibition call (S. aureus RN4220)

C[C@H](CO)N1C[C@H](C)[C@H](CN(C)C(=O)Nc2ccc(C(F)(F)F)cc2)Oc2ccc(NS(C)(=O)=O)cc2CC1=O
inactive: cytotoxicity call (HSkMC) | cytotoxicity call (HepG2) | growth inhibition call (S. aureus RN4220)

COc1ccc(NC(=O)Nc2ccc3c(c2)C(=O)N([C@H](C)CO)C[C@@H](C)[C@@H](CN(C)C(=O)CCC(F)(F)F)OCCCC[C@H](C)O3)cc1
inactive: cytotoxicity call (HSkMC) | cytotoxicity call (HepG2) | growth inhibition call (S. aureus RN4220)

C[C@H](CO)N1C[C@H](C)[C@@H](CN(C)Cc2ccncc2)OCCCC[C@H](C)Oc2ccc(NC(=O)Nc3ccc4c(c3)OCO4)cc2C1=O
inactive: cytotoxicity call (HSkMC) | cytotoxicity call (HepG2) | growth inhibition call (S. aureus RN4220)
